This is one part of the list.

The labels stand for the following.
B1: 53626799_53626919_133_5pUTR_ENSG00000023287_ENST00000025008|human|control|control (ssRNA)
RNA: GGGAGUUCUACAGUCCGACGAUCACUCUAGGAGGCAGGGAGGGGUCCGGGCGGACAAGGACGCGAGCAGGCCCCUCGGCUCUGGGUCUGGGGCCGGGGGACAGAAGGCCGCGGCCUGUCAGAGCCGAGGGGCCCAGGCGACUGCAACAGAGGAUUGAGCAUCA
B2: chr10:127900053:127900054:+_ENSMUSG00000025369_ENSMUST00000099131|mus_mus|FALSE|FALSE (ssRNA)
RNA: GGGAGUUCUACAGUCCGACGAUCACUCUUGAAUUUGUAGGCAGCUGCAAGAAUAUGGCAGAGGGAUCCUCCUGCUUUGAAAUCUAGGAAACAUUUGAUCGGCAGUUUAGUAAGCGGUGCGUUGCUGACAUGUUUGCCAAAAACCAACAGAGGAUUGAGCAUCA
B3: chr2:157385914:157385915:+_ENSMUSG00000067786_ENSMUST00000109526|mus_hu|FALSE|FALSE (ssRNA)
RNA: GGGAGUUCUACAGUCCGACGAUCCAGCCGAUGAUGAGCAGUUCAGCCGAGGCCGCCGCCACUGCCGCCAUGGUUCCAAGAAUGGUAGGUGGGUGGUCGAGAAAGAGGGUUUGCCGAGAUCCGCUGGUCUCGGAGUCCGCUGUUCAACAGAGGAUUGAGCAUCA
B4: chr8:41682716:41682717:-_ENSMUSG00000039431_ENSMUST00000048898|mus_mus|motif|central (ssRNA)
RNA: GGGAGUUCUACAGUCCGACGAUCCACAUCGCUGAGCUGCCAAUAAUUAUCAGGGAGGCCCAUUCGCUUGUAUUCUUCACGGAGGUCAACCAGCAACCAGCCCUGCUCCCGUUCUUCCUUAUCCAGCUUGGGGUUGAAGGAAAACAACAGAGGAUUGAGCAUCA
B5: chrX:117043865:117043866:-_ENSG00000003096_ENST00000371882|hu_hu|motif|central (ssRNA)
RNA: GGGAGUUCUACAGUCCGACGAUCGCGAAGCCAACGACAGGUAGCCUUAAAGAGCUCAAGUUCAGUACAGUGCUUAAGGCGGUUACUGGAAAGCACGAAGGCAAGACGCUCAAAAGGGAGUUUCAAGAACUCCCCUGUGCUCAGCAACAGAGGAUUGAGCAUCA
B6: chr15:41871108:41871109:+_ENSG00000092445_ENST00000263798|hu_hu|FALSE|FALSE (ssRNA)
RNA: GGGAGUUCUACAGUCCGACGAUCUCCUCUUGCUGGCUCGGCACGCUGCCUUUGGAAGAGGGGCACCUGAUAGGCUGGGUACUCCAGCAUGCCUUUGUGUGACCCGGUCAGCUGCAGGGAAGCAUGCUCCCCUCAACUUCUCCUCAACAGAGGAUUGAGCAUCA
B7: 135111022_135113256_79_3pUTR_ENSMUSG00000030795_ENSMUST00000077609|mouse|control|control (ssRNA)
RNA: GGGAGUUCUACAGUCCGACGAUCCAGGCUGGGUAGGAUAGGCCCCGUAGCUUUGAGUUGCUUGUUGGGUAUAGUCGUUUGAAGCCAUGUCCGCGCACGCGCGCAGCGCAGGCCGCCAAGCAACAAAGUUCCAGACGACCGCGACAACAGAGGAUUGAGCAUCA
B8: chr5:92853364:92853365:-_ENSMUSG00000034826_ENSMUST00000038514|mus_hu|FALSE|FALSE (ssRNA)
RNA: GGGAGUUCUACAGUCCGACGAUCAUUCUGUAAAAGCUGUUUGAUCUGUGCAGGAGAAAGUUCUGUUCUAGUCAUAGAAAGGGUUACACCAAGUUGCUGCAAUUGUGUUUUUAUAUUGGCUUGUUCAAAAUGGGCAUAUAGCGUCAACAGAGGAUUGAGCAUCA
B9: chr4:144460044:144460045:+_ENSG00000153147_ENST00000283131|hu_mus|FALSE|FALSE (ssRNA)
RNA: GGGAGUUCUACAGUCCGACGAUCACGGUCCAUAGCCUGAAGAUCAACUUGCGGAUUCCAAUCUGAGUCAUAUAAAAUGACUACAUCAGCAGUUGCAAGAUUGAUGCCCAGACCACCAGCACGUGUGCUUAGCAUAAAUACAAACAACAGAGGAUUGAGCAUCA
B10: chr5:4754414:4754415:-_ENSMUSG00000044674_ENSMUST00000054294|mus_hu|FALSE|FALSE (ssRNA)
RNA: GGGAGUUCUACAGUCCGACGAUCGUAAUAAAAUGUUGAAAGUGUACAACUUUUACAUUUUAAAGUUUCUGAUAUAUGUCUAGUUAUUUGAUUAAAAAUAAGAAAAUAGCACUUCAUUUUGAGGAAGUCCAUGACACUGAAAUACAACAGAGGAUUGAGCAUCA
B11: 134750436_134758669_1075_CDS_ENSMUSG00000060261_ENSMUST00000173341|mouse|control|control (ssRNA)
RNA: GGGAGUUCUACAGUCCGACGAUCCUCGUUGCCUUCUGAGGAGUGAUGGCUUCCUUGAAUGUUAUACUGAUAGUAAUCAGGGUCUUCUGACUCCUCCUUCACUGUCACAGCGGCCAUUUCCAGAGAAAUGCCAGAAUCUUCUGUCAACAGAGGAUUGAGCAUCA
B12: chr14:22612544:22612545:+_ENSMUSG00000021770_ENSMUST00000119430|mus_hu|motif|central (ssRNA)
RNA: GGGAGUUCUACAGUCCGACGAUCAAGCCAGGCAUCUAAGAACAACCUAGGGGGAGAACGCAAAGUUACUCAUUUUCAACAACGGUUAUAUAUUUAAUCACAAAUUCAUUAGAAAGAUAGUAUUCAUCCAAUUAGUCUUUUCAUCAACAGAGGAUUGAGCAUCA
B13: 160585562_160585682_211_3pUTR_ENSG00000136536_ENST00000259050|human|control|control (ssRNA)
RNA: GGGAGUUCUACAGUCCGACGAUCUAUUCAGAAUCCAAUCUAAAUGAAGAGUCUCUUGAGUGAUAGGUAUCAUUUAAACUACUUCCUCUGCUUCCAGACAUCAUCCUAGCACUUAAGGAGCUGGAAGGUUGAACAGAAAUUCUUCAACAGAGGAUUGAGCAUCA
B14: chr5:128440902:128440903:+_ENSG00000066583_ENST00000173527|hu_mus|hu_hu_hu_mus_True|1_18 (ssRNA)
RNA: GGGAGUUCUACAGUCCGACGAUCUUGAACGGUGCUGCCAAGUCCUUUGGGGUAUUGUUCCGUUAUGAUAACUGGAAUCCCUAAGAUCCGAGCUCCUUGCAACAGUCUCUGUCCCACGCUAAUAAUAUCCCCAAAGUACUUGAUCAACAGAGGAUUGAGCAUCA

For the test, the target named is T1, UNK ZnF1-3 (human, UniProt Q9C0B0 31-174).
T1 sequence: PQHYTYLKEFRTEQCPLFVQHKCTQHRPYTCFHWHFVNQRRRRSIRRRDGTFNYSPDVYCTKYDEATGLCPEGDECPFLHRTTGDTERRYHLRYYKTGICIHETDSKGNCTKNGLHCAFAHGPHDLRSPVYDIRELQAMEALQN
Briefly: nsRBNS (natural sequence RNA bind-n-seq); RBNS binding buffer (assumed for nsRBNS): 25 mM Tris pH 7.5, 150 mM KCl, 3 mM MgCl2, 0.01% Triton X-100, 500 ug/ml BSA, 20 U/ml SUPERase-In, 4 C; UNK is unkempt and MSI1 is Musashi-1; names of the RNAs are library labels; protein concentration not given here; high values mean tight binding.
The molecule B1 returned a binding signal of 0.319 enrichment R.
Next, B2: 0.671 enrichment R.
In the case of B3, the binding signal was determined as 0.724 enrichment R.
Next, B4: 1.48 enrichment R; B5: 0.856 enrichment R; B6: 0.632 enrichment R.
In the case of B7, the binding signal is 0.627 enrichment R.
B8: the binding signal worked out at 1.23 enrichment R.
The result for B9 reads 0.907 enrichment R; that for B10, 0.629 enrichment R.
Molecule B11 registered a binding signal of 0.714 enrichment R.
B12 showed a binding signal of 1.81 enrichment R.
Take B13: the binding signal came to 0.98 enrichment R.
Turning to B14, the binding signal was determined as 0.526 enrichment R.

For the origin of these results see PMC12136788.
